Reference: the supplement of paper PMC4967469
By IC50 is meant the dose at which the fit gives 50% viability; a limit (>, <) means that the fit lies beyond the doses tested. The AUC spans the tested range (256-fold, ending at the top dose) of the same fit; it is 1 without any effect and falls as sensitivity rises. For some of these results: An inferred top dose was derived from the fitted curves, not read from the paper.

Assays:
Assay in all cases: Viability of human cancer cell lines after 72 h of drug (GDSC screen)
Dabrafenib = compound: CC(C)(C)c1nc(-c2cccc(NS(=O)(=O)c3c(F)cccc3F)c2F)c(-c2ccnc(N)n2)s1 [Dabrafenib]; details: top dose 10 µM
Experimental: (§1)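 Human cancer cell lines in 384-well plates, medium with 10% serum, drug for 72 h over a 256-fold dose range (nine 2-fold or five 4-fold steps up to the top dose). Adherent lines were fixed and stained with the nucleic acid dye Syto60, suspension lines read with resazurin; signal relative to control wells, capped at 0 and 100%. One two-parameter sigmoid per drug and line, fitted in a mixed model over all curves with the slope shared within a line.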

Axitinib = compound: CNC(=O)c1ccccc1Sc1ccc2c(/C=C/c3ccccn3)n[nH]c2c1 [Axitinib]; details: top dose 2 µM
Experimental: as §1

SN-38 = compound: CCc1c2c(nc3ccc(O)cc13)-c1cc3c(c(=O)n1C2)COC(=O)[C@]3(O)CC [SN-38]; details: top dose 0.05 µM; top dose inferred
Experimental: as §1

Methotrexate = compound: CN(Cc1cnc2nc(N)nc(N)c2n1)c1ccc(C(=O)N[C@@H](CCC(=O)O)C(=O)O)cc1 [Methotrexate]; details: top dose 0.2 µM
Experimental: as §1

Vorinostat = compound: O=C(CCCCCCC(=O)Nc1ccccc1)NO [Vorinostat]; details: top dose 10 µM
Experimental: as §1

Cell Line	AUC (Dabrafenib)	IC50 (Dabrafenib)	AUC (Axitinib)	IC50 (Axitinib)	AUC (SN-38)	IC50 (SN-38)	AUC (Methotrexate)	IC50 (Methotrexate)	AUC (Vorinostat)	IC50 (Vorinostat)
OCUB-M (breast, adherent)	0.967	> 10000 nM	0.981	> 2000 nM	0.244	0.649 nM	0.99	> 200 nM	0.828	5060 nM
OCUM-1 (stomach, adherent)	0.967	> 10000 nM	0.924	> 2000 nM	0.698	12 nM	0.987	> 200 nM	0.627	1450 nM
OE21 (oesophagus, adherent)	0.951	> 10000 nM	0.86	> 2000 nM	0.802	36.1 nM	0.887	> 200 nM	0.583	1150 nM
OE33 (oesophagus, adherent)	0.975	> 10000 nM	0.976	> 2000 nM	0.812	33.3 nM	0.892	> 200 nM	0.817	7000 nM
OMC-1 (cervix, adherent)	0.98	> 10000 nM	0.961	> 2000 nM	0.881	> 50 nM	0.988	> 200 nM	0.869	9980 nM
ONS-76 (medulloblastoma, adherent)	0.699	2390 nM	0.88	> 2000 nM	0.489	2.92 nM	0.737	63.3 nM	0.667	1900 nM
OSC-20 (head and neck, adherent)	0.953	> 10000 nM	0.918	> 2000 nM	0.662	9.66 nM	0.96	> 200 nM	0.734	3340 nM
OV-7 (ovary, adherent)	0.854	> 10000 nM	0.945	> 2000 nM	0.74	22.2 nM	0.946	> 200 nM	0.72	3680 nM
OV-17R (ovary, adherent)	0.972	> 10000 nM	0.951	> 2000 nM	0.672	11.5 nM	0.98	> 200 nM	0.606	1370 nM
OV-56 (ovary, adherent)	0.976	> 10000 nM	0.95	> 2000 nM	0.724	13.1 nM	0.97	> 200 nM	0.717	2490 nM
OVCA420 (ovary, adherent)	0.916	> 10000 nM	0.973	> 2000 nM	0.858	> 50 nM	0.981	> 200 nM	0.779	5560 nM
OVCA433 (ovary, adherent)	0.971	> 10000 nM	0.904	> 2000 nM	0.513	3.41 nM	0.983	> 200 nM	0.771	4250 nM
OVISE (ovary, adherent)	0.958	> 10000 nM	0.969	> 2000 nM	0.825	44.1 nM	0.815	158 nM	0.507	656 nM
OVK-18 (ovary, adherent)	0.967	> 10000 nM	0.8	1090 nM	0.671	9.92 nM	0.982	> 200 nM	0.489	583 nM
OVKATE (ovary, adherent)	0.966	> 10000 nM	0.937	> 2000 nM	0.973	> 50 nM	0.979	> 200 nM	0.971	> 10000 nM
OVMIU (ovary, adherent)	0.977	> 10000 nM	0.973	> 2000 nM	0.78	25.9 nM	0.859	> 200 nM	0.715	2990 nM
P12-ICHIKAWA (T-cell lymphoblastic leukaemia, suspension)	0.994	> 10000 nM	0.934	> 2000 nM	0.433	2.14 nM	0.628	25.9 nM	0.55	828 nM
P31-FUJ (acute myeloid leukaemia, suspension)	0.976	> 10000 nM	0.956	> 2000 nM	0.681	8.7 nM	0.935	> 200 nM	0.639	1370 nM
P32-ISH (Burkitt lymphoma, suspension)	0.728	2270 nM	0.898	1400 nM	0.321	1.14 nM	0.922	174 nM	0.592	1050 nM
PA-TU-8902 (pancreas, adherent)	0.933	> 10000 nM	0.983	> 2000 nM	0.525	3.71 nM	0.976	> 200 nM	0.788	5200 nM
PANC-03-27 (pancreas, adherent)	0.975	> 10000 nM	0.988	> 2000 nM	0.595	5.59 nM	0.974	> 200 nM	0.826	5540 nM
PANC-08-13 (pancreas, adherent)	0.981	> 10000 nM	0.97	> 2000 nM	0.946	> 50 nM	0.963	> 200 nM	0.724	3280 nM
PC-3 [JPC-3] (lung adenocarcinoma, adherent)	0.972	> 10000 nM	0.981	> 2000 nM	0.713	15.4 nM	0.974	> 200 nM	0.817	8080 nM
PC-14 (lung adenocarcinoma, adherent)	0.985	> 10000 nM	0.99	> 2000 nM	0.667	8.62 nM	0.915	> 200 nM	0.76	3170 nM
PCI-6A (head and neck, adherent)	0.984	> 10000 nM	0.835	1280 nM	0.776	19.6 nM	0.814	107 nM	0.462	494 nM
